These results are taken from article PMC4242493.

The list shows a part of the results. The list includes weakly bound sequences.

The test concerns the target MaxL homodimer (UniProt P61244). Nature of the test: universal protein-binding microarray (PBM). The settings on record: PBS-based mixture, 10 nM His-tagged protein dimer, 2% milk, 200 ng/uL BSA, 50 ng/uL salmon testes DNA, 0.02% TX-100; detection with Alexa 488 anti-His …; high values mean tight binding; most listed sequences are background and not binding sites; double strand, one strand shown.
Sequence of UniProt P61244 (P61244 whole entry): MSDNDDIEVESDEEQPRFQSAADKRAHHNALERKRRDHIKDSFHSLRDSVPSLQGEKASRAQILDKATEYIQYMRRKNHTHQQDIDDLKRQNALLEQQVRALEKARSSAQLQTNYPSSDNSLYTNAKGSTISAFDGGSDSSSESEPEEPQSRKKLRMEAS
For the sequence AAGACATA, the binding signal (normalized occupancy) amounted to 0.0762.

Consider CCCGTCGG, for which the binding signal (normalized occupancy) turned out to be 0.0689.

Consider GGCCCGAC, for which the binding signal (normalized occupancy) is 0.064.

For the sequence GACCGTAA, the binding signal (normalized occupancy) worked out at 0.0697.

Consider CCATTGAA, for which the binding signal (normalized occupancy) was found to be 0.0748.

Turning to AAATACCT, the binding signal (normalized occupancy) was 0.0775.

Turning to GAAAGCAC, the binding signal (normalized occupancy) came out at 0.0797.

For the sequence ACACGTAG, the binding signal (normalized occupancy) is 0.0822.

For the sequence ACATCTTG, the binding signal (normalized occupancy) is 0.0773.

ACTGCTGG: the binding signal (normalized occupancy) stood at 0.0688.

Regarding TGCCCAAA, the binding signal (normalized occupancy) is 0.0731.

GGTGGACA: the binding signal (normalized occupancy) is 0.0773.

Take GCTTACCC: the binding signal (normalized occupancy) was found to be 0.0711.

Turning to CACCTAGG, the binding signal (normalized occupancy) came to 0.0742.

As for GCGTACAC, the binding signal (normalized occupancy) stood at 0.0822.

Turning to ATAGTCAT, the binding signal (normalized occupancy) came to 0.0846.

Take GGCTCCCA: the binding signal (normalized occupancy) was found to be 0.0719.

For AGTCCTTA, the binding signal (normalized occupancy) came to 0.0728.

For CGAACATA, the binding signal (normalized occupancy) was 0.0805.

Turning to GGTAAGAA, the binding signal (normalized occupancy) was 0.0778.

Regarding ATGCTTCA, the binding signal (normalized occupancy) was 0.0847.

As for ACTCATAC, the binding signal (normalized occupancy) was 0.074.

Consider AGAAAAGG, for which the binding signal (normalized occupancy) was found to be 0.0723.

With GCTGAAGC, the binding signal (normalized occupancy) was 0.0688.

Regarding AACGGAAG, the binding signal (normalized occupancy) was found to be 0.0666.

With AAGGGGCT, the binding signal (normalized occupancy) was found to be 0.0751.

For the sequence CGACCCAC, the binding signal (normalized occupancy) is 0.0808.

As to CGATACCC, the binding signal (normalized occupancy) worked out at 0.0786.

On to ACTTGCGC, for which the binding signal (normalized occupancy) was 0.071.

For ACGCGCTA, the binding signal (normalized occupancy) amounted to 0.0816.

AGGAGTTC: the binding signal (normalized occupancy) amounted to 0.0754.

Regarding GCAAGGGC, the binding signal (normalized occupancy) came out at 0.0695.

For the sequence ATGAAATA, the binding signal (normalized occupancy) amounted to 0.0816.

As to GTCCTCTA, the binding signal (normalized occupancy) was determined as 0.0658.

For the sequence ATGATGTA, the binding signal (normalized occupancy) stood at 0.0862.

As to CTACGGCC, the binding signal (normalized occupancy) turned out to be 0.0847.

Take ACTGATTA: the binding signal (normalized occupancy) was 0.0778.

Consider ACAAACTC, for which the binding signal (normalized occupancy) is 0.0717.

Take CCCAAACC: the binding signal (normalized occupancy) was found to be 0.0685.

AGGAGCCT: the binding signal (normalized occupancy) was determined as 0.0674.

With GGGTGTAA, the binding signal (normalized occupancy) was 0.0766.

Turning to GTTAAATA, the binding signal (normalized occupancy) came to 0.0807.

With TCTGGGCA, the binding signal (normalized occupancy) is 0.0693.

Take GAGCGACC: the binding signal (normalized occupancy) turned out to be 0.0707.

As to AGGCTGCG, the binding signal (normalized occupancy) turned out to be 0.0631.

Turning to GAAATACA, the binding signal (normalized occupancy) was determined as 0.0759.

For GGATATTA, the binding signal (normalized occupancy) amounted to 0.0779.

Regarding AGATGAAC, the binding signal (normalized occupancy) amounted to 0.0822.

Consider ATACCCGG, for which the binding signal (normalized occupancy) was determined as 0.0704.

In the case of ACACTCAC, the binding signal (normalized occupancy) turned out to be 0.075.

For GAACAGTC, the binding signal (normalized occupancy) was 0.0727.

On to CTCTAAAG, for which the binding signal (normalized occupancy) worked out at 0.0656.

Consider CGCGGCGA, for which the binding signal (normalized occupancy) worked out at 0.0704.

AACCTGAG: the binding signal (normalized occupancy) turned out to be 0.0732.

On to ACGTTGTA, for which the binding signal (normalized occupancy) worked out at 0.0845.

As to ACCGTCCA, the binding signal (normalized occupancy) amounted to 0.0727.

As to CTGCGTGA, the binding signal (normalized occupancy) was 0.0818.

Turning to GGTTAATA, the binding signal (normalized occupancy) was determined as 0.0754.

In the case of GGTTCTGA, the binding signal (normalized occupancy) stood at 0.074.

Turning to GACCGGGA, the binding signal (normalized occupancy) is 0.0679.

Turning to AACGGAAT, the binding signal (normalized occupancy) was 0.0769.

AAATAGCC: the binding signal (normalized occupancy) was found to be 0.076.

Regarding AATAGGTC, the binding signal (normalized occupancy) came to 0.0778.

For the sequence GTTTCCAA, the binding signal (normalized occupancy) came to 0.0724.

In the case of CAACCAAC, the binding signal (normalized occupancy) was 0.0739.

Turning to CGCGTTTC, the binding signal (normalized occupancy) was 0.0778.

CAATTTCA: the binding signal (normalized occupancy) turned out to be 0.0751.

Turning to ACACTTCA, the binding signal (normalized occupancy) came out at 0.0766.

Take CAAACCGC: the binding signal (normalized occupancy) worked out at 0.0686.

Regarding AAACACGC, the binding signal (normalized occupancy) stood at 0.0929.

In the case of CTAGCCTC, the binding signal (normalized occupancy) worked out at 0.076.

AATGATCT: the binding signal (normalized occupancy) was found to be 0.0828.

On to AAGCGCTT, for which the binding signal (normalized occupancy) was found to be 0.0738.

For AGTCCATA, the binding signal (normalized occupancy) came to 0.0814.

On to ACGCACGC, for which the binding signal (normalized occupancy) is 0.109.

As to AAACTCCT, the binding signal (normalized occupancy) amounted to 0.0732.

In the case of AAGTTACT, the binding signal (normalized occupancy) was determined as 0.0735.

For the sequence CACCGGAG, the binding signal (normalized occupancy) was found to be 0.0649.

As for CTCAGTCA, the binding signal (normalized occupancy) worked out at 0.0715.

Take TCTCCCAA: the binding signal (normalized occupancy) was 0.0757.

As for AACTATAT, the binding signal (normalized occupancy) worked out at 0.0879.

Regarding CAACAAAC, the binding signal (normalized occupancy) was found to be 0.0754.

Consider AACCTCCG, for which the binding signal (normalized occupancy) was found to be 0.071.

CACATACA: the binding signal (normalized occupancy) was found to be 0.0875.

Regarding CAGCTAGC, the binding signal (normalized occupancy) turned out to be 0.0696.

Regarding AAACTCAA, the binding signal (normalized occupancy) worked out at 0.0694.

For the sequence CTCTCAAG, the binding signal (normalized occupancy) was 0.0693.

In the case of CCCTTCAA, the binding signal (normalized occupancy) was determined as 0.0725.

As to AGCCCCGA, the binding signal (normalized occupancy) came out at 0.0668.

ACGCGTTA: the binding signal (normalized occupancy) came to 0.0897.

Regarding GGACATAC, the binding signal (normalized occupancy) was 0.0791.

In the case of AACAACAG, the binding signal (normalized occupancy) stood at 0.0691.

Regarding GGCTCATA, the binding signal (normalized occupancy) came out at 0.0797.

Take CCCGGCCC: the binding signal (normalized occupancy) amounted to 0.0674.

With GGTGCGAC, the binding signal (normalized occupancy) came out at 0.0748.

As for CGGAAAAA, the binding signal (normalized occupancy) worked out at 0.0709.

In the case of AAGTTGAC, the binding signal (normalized occupancy) amounted to 0.0728.

With GGTTTGAC, the binding signal (normalized occupancy) came to 0.0732.

As to AGAACCTC, the binding signal (normalized occupancy) was found to be 0.0745.

For AGACCTTC, the binding signal (normalized occupancy) was found to be 0.0725.

Turning to CGGCATCC, the binding signal (normalized occupancy) amounted to 0.078.

On to AAGGTGTG, for which the binding signal (normalized occupancy) is 0.0881.

As for CGCCTCTA, the binding signal (normalized occupancy) worked out at 0.0741.

As to ACGCGCAT, the binding signal (normalized occupancy) was determined as 0.0874.

With CGTACGCC, the binding signal (normalized occupancy) was determined as 0.0757.

Consider GTCAACGA, for which the binding signal (normalized occupancy) came out at 0.0765.

With ATAAGAAT, the binding signal (normalized occupancy) is 0.0831.

CTGTTTGC: the binding signal (normalized occupancy) was 0.0759.

In the case of ACGTTCGC, the binding signal (normalized occupancy) came to 0.0729.

As to GAGAGGGC, the binding signal (normalized occupancy) amounted to 0.0657.

Regarding GATTGAGA, the binding signal (normalized occupancy) was 0.0788.

Consider CCCTCGGC, for which the binding signal (normalized occupancy) was 0.0655.

Turning to AATTACTA, the binding signal (normalized occupancy) turned out to be 0.0717.

As for AACAACAT, the binding signal (normalized occupancy) came out at 0.0756.

With CGCCCTCA, the binding signal (normalized occupancy) is 0.0774.

Take ATGTCTGG: the binding signal (normalized occupancy) stood at 0.0823.

As for ATTTAAGA, the binding signal (normalized occupancy) turned out to be 0.0746.

Regarding AGATCATA, the binding signal (normalized occupancy) stood at 0.082.

As to GGGCCTCA, the binding signal (normalized occupancy) is 0.0699.

In the case of CAACACGG, the binding signal (normalized occupancy) came out at 0.0817.

Take GGTCTAGA: the binding signal (normalized occupancy) came out at 0.0765.

Consider CGCATGGC, for which the binding signal (normalized occupancy) stood at 0.127.

Take CACGATCC: the binding signal (normalized occupancy) was 0.0764.

In the case of ATCGCGAT, the binding signal (normalized occupancy) came out at 0.0742.

In the case of CCTAGAGC, the binding signal (normalized occupancy) was 0.0678.

With AGTACGAG, the binding signal (normalized occupancy) was 0.0727.

In the case of CCTAGTGC, the binding signal (normalized occupancy) was found to be 0.0733.

On to CCGGTTCA, for which the binding signal (normalized occupancy) turned out to be 0.0669.

With ACACAGCT, the binding signal (normalized occupancy) amounted to 0.0751.

GCTCCGCA: the binding signal (normalized occupancy) came out at 0.0692.

Take GAACGATA: the binding signal (normalized occupancy) worked out at 0.0795.

In the case of GATACATC, the binding signal (normalized occupancy) was 0.0834.

As for GGACTTGA, the binding signal (normalized occupancy) is 0.0817.

Take AGAGCCAG: the binding signal (normalized occupancy) was 0.0757.

As to CCGCTCAA, the binding signal (normalized occupancy) is 0.0717.

For GGACTCCA, the binding signal (normalized occupancy) amounted to 0.0762.

Take CTTGCGGA: the binding signal (normalized occupancy) turned out to be 0.0728.

With GCGTAAGA, the binding signal (normalized occupancy) worked out at 0.07.

On to GGACCCAA, for which the binding signal (normalized occupancy) turned out to be 0.0726.

Regarding GTCCCAAA, the binding signal (normalized occupancy) is 0.0716.

For AGAATTAT, the binding signal (normalized occupancy) stood at 0.0775.

In the case of ATCTCATG, the binding signal (normalized occupancy) came out at 0.0945.

In the case of ATCCCCAC, the binding signal (normalized occupancy) came to 0.0813.

As for ACCCAACG, the binding signal (normalized occupancy) amounted to 0.0755.

Regarding ATGCGTCC, the binding signal (normalized occupancy) was 0.0782.

On to ACGGGTAC, for which the binding signal (normalized occupancy) is 0.0821.

For the sequence CTAACTAA, the binding signal (normalized occupancy) came out at 0.0746.

In the case of ATAGCATC, the binding signal (normalized occupancy) was 0.0799.

On to CCGCACGC, for which the binding signal (normalized occupancy) stood at 0.0999.

Turning to CTGTGAAG, the binding signal (normalized occupancy) amounted to 0.0738.

Turning to ATAGTAGG, the binding signal (normalized occupancy) was 0.0788.

For the sequence GCTTGAAA, the binding signal (normalized occupancy) was 0.0731.

Consider ATGATACG, for which the binding signal (normalized occupancy) came to 0.0814.

CTGGGAAG: the binding signal (normalized occupancy) came to 0.071.

As for ATACCAGA, the binding signal (normalized occupancy) was determined as 0.0758.

As to CCGTAAAC, the binding signal (normalized occupancy) is 0.0745.

Take ACCCCGAG: the binding signal (normalized occupancy) was 0.0798.

For the sequence GAAAGCGC, the binding signal (normalized occupancy) stood at 0.0724.

On to AGTGAGAC, for which the binding signal (normalized occupancy) was 0.0703.

Regarding TGATTCCA, the binding signal (normalized occupancy) is 0.0829.

Take GTGCTGAA: the binding signal (normalized occupancy) was 0.0776.

Regarding CCGAACGG, the binding signal (normalized occupancy) was 0.0662.

For the sequence AAGCGCAG, the binding signal (normalized occupancy) is 0.0685.

As for GGATGCCC, the binding signal (normalized occupancy) was 0.0714.

With AAAACTTC, the binding signal (normalized occupancy) turned out to be 0.067.

Turning to ATGACGCG, the binding signal (normalized occupancy) was found to be 0.0781.

Take GTCTAGCA: the binding signal (normalized occupancy) was 0.0721.

Turning to ACCGAAGT, the binding signal (normalized occupancy) came out at 0.0692.

For the sequence CGGTACCC, the binding signal (normalized occupancy) turned out to be 0.0711.

Regarding CTGATTAA, the binding signal (normalized occupancy) is 0.0755.

On to GGGAGAGA, for which the binding signal (normalized occupancy) was 0.0795.

AATGAAAC: the binding signal (normalized occupancy) came out at 0.0763.
